Counter-ions that a name gives are not always drawn. Starred links: 1 amine or outer side, 2 acyl side, 3 side chain; linkers in the order of their positions; H or OH if unused. Positions of bridges follow the written chain, without caps; N, C: chain ends. Non-standard residues stand in square brackets, D forms with d. Residues, ends and D or L forms follow the SMILES beside them. Chains are numbered I, II in the order given. Actinocin(9to1) = Cc1c2oc3c(C)ccc(C(=O)[*:1])c3nc-2c(C(=O)[*:2])c(N)c1=O; NMeV = CN[C@H](C(=O)O)C(C)C; Sar = CNCC(=O)O
How the values were obtained:
[1] = test system: HUVEC-TIE2-L914F; test: cells; details: Homo sapiens; for inhibition at 20 µM: read-out: Average proliferation Inhibition rate (%) L914F; for IC50: read-out: IC50 L914F
[2] = test system: HUVEC-TIE2-WT; test: cells; details: Homo sapiens; for inhibition at 20 µM: read-out: Average proliferation Inhibition rate (%) WT; for IC50: read-out: IC50 WT

| SMILES | inhibition at 20 µM [1] | inhibition at 20 µM [2] | IC50 [1] | IC50 [2] |
| --- | --- | --- | --- | --- |
| S=P(N1CC1)(N1CC1)N1CC1 [Thiotepa] | 10.2% | 8.06% |  |  |
| COc1cccc2c1C(=O)c1c(O)c3c(c(O)c1C2=O)C[C@@](O)(C(=O)CO)C[C@@H]3O[C@H]1C[C@H](N)[C@@H](O)[C@H](C)O1 [Epirubicin hydrochloride] | 64.7% | 54.7% |  |  |
| O=C(c1cc(Cc2n[nH]c(=O)c3ccccc23)ccc1F)N1CCN(C(=O)C2CC2)CC1 [Olaparib] | 11.5% | 11% |  |  |
| C#CCC(Cc1cnc2nc(N)nc(N)c2n1)c1ccc(C(=O)N[C@@H](CCC(=O)O)C(=O)O)cc1 (stereo partly shown) [Pralatrexate] | 34.6% | -13.5% |  |  |
| CS(=O)(=O)CCNCc1ccc(-c2ccc3ncnc(Nc4ccc(OCc5cccc(F)c5)c(Cl)c4)c3c2)o1 [Lapatinib] | 6.44% | -3.81% |  |  |
| C=CC(=O)N1CCC[C@@H](n2nc(-c3ccc(Oc4ccccc4)cc3)c3c(N)ncnc32)C1 [Ibrutinib] | 24.5% | 25.8% |  |  |
| NC(=O)NO [Hydroxyurea] | -2.83% | -1.53% |  |  |
| NCC(=O)CCC(=O)O [Aminolevulinic acid hydrochloride] | -1.31% | -3.6% |  |  |
| Nc1ncn([C@H]2C[C@H](O)[C@@H](CO)O2)c(=O)n1 [Decitabine] | 8.76% | -1.12% |  |  |
| CN(C)C/C=C/C(=O)Nc1cc2c(Nc3ccc(F)c(Cl)c3)ncnc2cc1O[C@H]1CCOC1 [Afatinib] | 41.4% | 13.1% |  |  |
| Nc1nc2nc[nH]c2c(=S)[nH]1 [Thioguanine] | 47.6% | 30.8% |  |  |
| CC[C@]1(O)C[C@@H]2CN(CCc3c([nH]c4ccccc34)[C@@](C(=O)OC)(c3cc4c(cc3OC)N(C)[C@H]3[C@@](O)(C(=O)OC)[C@H](OC(C)=O)[C@]5(CC)C=CCN6CC[C@]43[C@@H]65)C2)C1 [Vinblastine sulfate] | 35.4% | 43% |  |  |
| O=C1c2c(O)ccc(O)c2C(=O)c2c(NCCNCCO)ccc(NCCNCCO)c21 [Mitoxantrone] | 73.6% | 69.9% |  |  |
| COc1cccc2c1C(=O)c1c(O)c3c(c(O)c1C2=O)C[C@@](O)(C(=O)CO)C[C@@H]3O[C@H]1C[C@H](N)[C@H](O)[C@H](C)O1 [Doxorubicin hydrochloride] | 64.5% | 55.4% |  |  |
| Nc1cccc2c1CN(C1CCC(=O)NC1=O)C2=O (stereo not shown) [Lenalidomide] | 4.46% | -2.09% |  |  |
| CN(N=O)C(=O)N[C@@H](C=O)[C@@H](O)[C@H](O)[C@H](O)CO [Streptozocin] | -0.95% | -5.84% |  |  |
| O=C1CCC(N2C(=O)c3ccccc3C2=O)C(=O)N1 (stereo not shown) [Thalidomide] | -2.35% | -5.38% |  |  |
| CCCCC(=O)OCC(=O)[C@]1(O)Cc2c(O)c3c(c(O)c2[C@@H](O[C@H]2C[C@H](NC(=O)C(F)(F)F)[C@H](O)[C@H](C)O2)C1)C(=O)c1c(OC)cccc1C3=O [Valrubicin] | 45.4% | 2.82% |  |  |
| COc1cc2c(Nc3ccc(Br)cc3F)ncnc2cc1OCC1CCN(C)CC1 [Vandetanib] | 66.7% | 49% | > 10 µM | 5.63 ± 0.24 µM |
| COc1cc([C@@H]2c3cc4c(cc3[C@@H](O[C@@H]3O[C@@H]5CO[C@@H](c6cccs6)O[C@H]5[C@H](O)[C@H]3O)[C@H]3COC(=O)[C@H]23)OCO4)cc(OC)c1O [Teniposide] | 63.9% | 49.9% |  |  |
| C/C(=C\c1csc(C)n1)[C@@H]1C[C@@H]2O[C@]2(C)CCC[C@H](C)[C@H](O)[C@@H](C)C(=O)C(C)(C)[C@@H](O)CC(=O)N1 [Ixabepilone] | 79.7% | 60.2% |  |  |
| CNC(=O)c1ccc(N2C(=S)N(c3ccc(C#N)c(C(F)(F)F)c3)C(=O)C2(C)C)cc1F [Enzalutamide] | 80.9% | 66.5% |  |  |
| Nc1nc(Cl)nc2c1ncn2[C@H]1C[C@H](O)[C@@H](CO)O1 [Cladribine] | 40.2% | 33.4% |  |  |
| CC(C)Cn1cnc2c(N)nc3ccccc3c21 [Imiquimod] | 2.68% | -3.32% |  |  |
| C1CN1c1nc(N2CC2)nc(N2CC2)n1 [Triethylenemelamine] | 40.6% | 20.7% |  |  |
| C[C@@H](Oc1cc(-c2cnn(C3CCNCC3)c2)cnc1N)c1c(Cl)ccc(F)c1Cl [Crizotinib] | 78.5% | 64.8% |  |  |
| Nc1nc(F)nc2c1ncn2[C@@H]1O[C@H](COP(=O)(O)O)[C@@H](O)[C@@H]1O [Fludarabine phosphate] | 1.21% | -2.3% |  |  |

| SMILES | inhibition at 20 µM [1] | inhibition at 20 µM [2] | IC50 [1] | IC50 [2] |
| --- | --- | --- | --- | --- |
| C[C@@H](CN1CC(=O)NC(=O)C1)N1CC(=O)NC(=O)C1 [Dexrazoxane] | 10.8% | 5.76% |  |  |
| NCCCNCCSP(=O)(O)O [Amifostine] | 0.66% | -11.5% |  |  |
| COc1cc2nccc(Oc3ccc(NC(=O)C4(C(=O)Nc5ccc(F)cc5)CC4)cc3)c2cc1OC [Cabozantinib] | 73.7% | 58.3% |  | 2.89 ± 1.16 µM |
| CN(Cc1cnc2nc(N)nc(N)c2n1)c1ccc(C(=O)N[C@@H](CCC(=O)O)C(=O)O)cc1 [Methotrexate] | -2.85% | -7.58% |  |  |
| Oc1ncnc2[nH]ncc12 [Allopurinol] | -0.18% | -1.38% |  |  |
| Oc1ncc(N(CCCl)CCCl)c(O)n1 [Uracil mustard] | 17.5% | 6.77% |  |  |
| Nc1nc(Cl)nc2c1ncn2[C@@H]1O[C@H](CO)[C@@H](O)[C@@H]1F [Clofarabine] | 44.2% | 35.2% |  |  |
| Nc1cccc2c1C(=O)N(C1CCC(=O)NC1=O)C2=O (stereo not shown) [Pomalidomide] | -1.48% | -4.53% |  |  |
| Nc1ccn([C@@H]2O[C@H](CO)[C@@H](O)C2(F)F)c(=O)n1 [Gemcitabine hydrochloride] | 52.7% | 37.4% |  |  |
| CS(=O)(=O)c1ccc(C(=O)Nc2ccc(Cl)c(-c3ccccn3)c2)c(Cl)c1 [Vismodegib] | 1.57% | -9.97% |  |  |
| C[C@]12CC[C@H](O)CC1=CC[C@@H]1[C@@H]2CC[C@]2(C)C(c3cccnc3)=CC[C@@H]12 [Abiraterone] | 5.33% | -7.15% |  |  |
| Cc1ccc(-c2cc(C(F)(F)F)nn2-c2ccc(S(N)(=O)=O)cc2)cc1 [Celecoxib] | 5.55% | -10.2% |  |  |
| CC(C)C[C@H](NC(=O)[C@H](CCc1ccccc1)NC(=O)CN1CCOCC1)C(=O)N[C@@H](Cc1ccccc1)C(=O)N[C@@H](CC(C)C)C(=O)[C@@]1(C)CO1 [Carfilzomib] | 76.8% | 65% |  |  |
| CC(=O)O[C@]1(C(C)=O)CC[C@H]2[C@@H]3C=C(C)C4=CC(=O)CC[C@]4(C)[C@H]3CC[C@@]21C [Megestrol-acetate] | 2.95% | -7.37% |  |  |
| CC(=O)O[C@H]1C(=O)[C@@]2(C)[C@H]([C@H](OC(=O)c3ccccc3)[C@]3(O)C[C@H](OC(=O)[C@H](O)[C@@H](NC(=O)c4ccccc4)c4ccccc4)C(C)=C1C3(C)C)[C@]1(OC(C)=O)CO[C@@H]1C[C@@H]2O [Paclitaxel] | 42.9% | 41.6% |  |  |
| OC[C@H]1O[C@@H](n2cnc3c2NC=NC[C@H]3O)C[C@@H]1O [Pentostatin] | -2.59% | -5.53% |  |  |
| CN(C)/N=N/c1[nH]cnc1C(N)=O [Dacarbazine] | -3.94% | -3.57% |  |  |
| CC[C@]1(O)C[C@H]2CN(CCc3c([nH]c4ccccc34)[C@@](C(=O)OC)(c3cc4c(cc3OC)N(C=O)[C@H]3[C@@](O)(C(=O)OC)[C@H](OC(C)=O)[C@]5(CC)C=CCN6CC[C@]43[C@@H]65)C2)C1 [Vincristine sulfate] | 32.8% | 29.4% |  |  |
| COC(=O)C[C@](O)(CCCC(C)(C)O)C(=O)O[C@@H]1C(OC)=C[C@]23CCCN2CCc2cc4c(cc2[C@H]13)OCO4 [Omacetaxine-mepesuccinate] |  | 67.6% |  |  |
| Nc1nc2[nH]cc(CCc3ccc(C(=O)N[C@@H](CCC(=O)O)C(=O)O)cc3)c2c(=O)[nH]1 [Pemetrexed disodium salt] | 5.13% | -2.57% |  |  |
| Cc1c2oc3c(C)ccc(C(=O)N[C@@H]4C(=O)N[C@H](C(C)C)C(=O)N5CCC[C@H]5C(=O)N(C)CC(=O)N(C)[C@@H](C(C)C)C(=O)O[C@@H]4C)c3nc-2c(C(=O)N[C@@H]2C(=O)N[C@H](C(C)C)C(=O)N3CCC[C@H]3C(=O)N(C)CC(=O)N(C)[C@@H](C(C)C)C(=O)O[C@@H]2C)c(N)c1=O [Dactinomycin] (I: T[dV]P[Sar][NMeV] / II: T[dV]P[Sar][NMeV]; ester I:1-I:C, II:1-II:C; linker I:N-II:N via Actinocin(9to1)) | 60.4% | 45% |  |  |
| COc1cc([C@@H]2c3cc4c(cc3[C@@H](O[C@@H]3O[C@@H]5CO[C@@H](C)O[C@H]5[C@H](O)[C@H]3O)[C@H]3COC(=O)[C@H]23)OCO4)cc(OC)c1O [Etoposide] | 34.6% | 26.5% |  |  |
| COc1cccc2c1C(=O)c1c(O)c3c(c(O)c1C2=O)C[C@@](O)(C(C)=O)C[C@@H]3O[C@H]1C[C@H](N)[C@H](O)[C@H](C)O1 [Daunorubicin hydrochloride] | 70% | 57.3% |  |  |
| CC[C@H](Nc1ncnc2[nH]cnc12)c1nc2cccc(F)c2c(=O)n1-c1ccccc1 [Idelalisib] | 23.4% | 36.2% |  |  |
| C#Cc1cccc(Nc2ncnc3cc(OCCOC)c(OCCOC)cc23)c1 [Erlotinib hydrochloride] | 10.7% | 25.5% |  |  |
| CCN(CC)CCNC(=O)c1c(C)[nH]c(/C=C2\C(=O)Nc3ccc(F)cc32)c1C [Sunitinib] |  | 38.5% |  |  |
| Cc1cc(Nc2ncc(Cl)c(Nc3ccccc3S(=O)(=O)C(C)C)n2)c(OC(C)C)cc1C1CCNCC1 [Ceritinib] | 76.6% |  | 9.03 ± 1.38 µM |  |

— US20180015075A1, “METHODS AND COMPOSITIONS FOR TREATMENT OF VENOUS MALFORMATION” (Children's Hospital Medical Center, priority 2016, published 2018)
